The text below walks through data of article PMC4336329 (PLoS ONE, 2015).

Molecules are shown by their SMILES. About 14,000 (4.5%) of roughly 310,000 compounds showed an effect of 50% or more. Effects have a minus sign here. This is one part of the list.
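Further: peak tail current of the secondary pulse compared with the same well before compound.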

Sequence of human ether-à-go-go-related gene (hERG) potassium channel (Q12809 whole entry, looked up): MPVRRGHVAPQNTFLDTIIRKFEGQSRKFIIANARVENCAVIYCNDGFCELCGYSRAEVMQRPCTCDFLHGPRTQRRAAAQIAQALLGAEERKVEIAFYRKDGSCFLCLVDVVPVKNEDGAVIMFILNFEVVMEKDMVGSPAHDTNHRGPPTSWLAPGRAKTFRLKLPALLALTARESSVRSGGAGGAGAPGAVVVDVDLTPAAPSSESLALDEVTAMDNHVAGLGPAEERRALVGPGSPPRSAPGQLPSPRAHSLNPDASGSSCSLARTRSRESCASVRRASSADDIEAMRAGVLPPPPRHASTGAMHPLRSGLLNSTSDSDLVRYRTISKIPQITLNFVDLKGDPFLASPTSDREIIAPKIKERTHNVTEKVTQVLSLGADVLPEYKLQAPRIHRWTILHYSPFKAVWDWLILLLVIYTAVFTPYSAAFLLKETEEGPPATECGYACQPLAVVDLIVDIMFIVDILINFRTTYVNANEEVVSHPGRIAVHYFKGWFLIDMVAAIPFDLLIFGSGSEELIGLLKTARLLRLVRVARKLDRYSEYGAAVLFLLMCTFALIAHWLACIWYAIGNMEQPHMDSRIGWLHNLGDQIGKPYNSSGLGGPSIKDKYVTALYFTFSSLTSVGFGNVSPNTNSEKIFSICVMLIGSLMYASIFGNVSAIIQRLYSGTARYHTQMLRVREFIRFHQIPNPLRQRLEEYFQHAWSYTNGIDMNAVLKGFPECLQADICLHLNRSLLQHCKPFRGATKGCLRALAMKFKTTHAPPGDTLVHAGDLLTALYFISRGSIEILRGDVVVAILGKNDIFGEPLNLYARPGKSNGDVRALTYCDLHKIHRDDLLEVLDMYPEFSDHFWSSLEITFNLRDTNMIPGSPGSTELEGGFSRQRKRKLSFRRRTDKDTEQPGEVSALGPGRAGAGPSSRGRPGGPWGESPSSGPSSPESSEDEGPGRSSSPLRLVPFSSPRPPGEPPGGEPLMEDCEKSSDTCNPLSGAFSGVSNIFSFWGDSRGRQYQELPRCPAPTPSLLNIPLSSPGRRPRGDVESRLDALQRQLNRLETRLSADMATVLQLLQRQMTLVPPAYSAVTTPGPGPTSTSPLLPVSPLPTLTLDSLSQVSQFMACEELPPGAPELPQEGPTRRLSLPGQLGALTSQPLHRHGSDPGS

The experiment has as its target human ether-à-go-go-related gene (hERG) potassium channel (human, UniProt Q12809). The experiment is described as follows: primary screen, population patch clamp on CHO cells stably expressing hERG.
Consider `Cc1ccccc1NC(=S)N/N=C/C(C)c1ccccc1` (stereo not shown), for which the “hERG current change (%, negative = inhibition) at 10uM” value is listed as 3.35%. On to `O=C(O)CCCCCNC(=O)Cn1nnc2ccccc2c1=O`, for which the “hERG current change (%, negative = inhibition) at 10uM” value is recorded as 8.37%.

`COc1ccc(OC)c(NC(=O)CCNC(=O)Cn2ccc3ccccc3c2=O)c1`: the “hERG current change (%, negative = inhibition) at 10uM” value is 23.7%. Regarding `CCN1CCN(CCC(=O)Nc2cc(OC)cc(OC)c2)CC1`, the “hERG current change (%, negative = inhibition) at 10uM” value is recorded as 12.6%. As to `COc1ccc(C(=O)NCc2ccc3c(c2)OCO3)cc1`, the “hERG current change (%, negative = inhibition) at 10uM” value is 9.03%.

In the case of `CCOc1ccccc1C1CC(=O)NC(SCC(=O)Nc2nccs2)=C1C#N` (stereo not shown), the “hERG current change (%, negative = inhibition) at 10uM” value is on record as -0.586%. Next, `Cc1cc(OC(F)F)ccc1NC(=O)Nc1ccc([N+](=O)[O-])cc1`: -9.46%; `CCN1CCN(c2nc3c(c(=O)[nH]c(=O)n3C)n2Cc2ccccc2F)CC1`: -7.31%; `CCCC(C)NC(=O)c1ccc(OCc2ccc(Cl)cc2)c(OC)c1` (stereo not shown): 4.98%. Next, `CCOc1cc(C(=O)OCC(=O)Nc2ncc(Cl)c(C)c2Cl)ccc1OCC(=O)N1CCOCC1`: -15.3%.

For the compound `O=C(Nc1ccc2c(c1)nc1n2CCN(C2CCCCC2)C1)NC1CCCCC1`, the “hERG current change (%, negative = inhibition) at 10uM” value is -4.34%. Next, `CC(Nc1c([N+](=O)[O-])c(=O)oc2ccccc12)c1ccccc1` (stereo not shown): -28.5%; `C/C(=N\Nc1ccc([N+](=O)[O-])cc1[N+](=O)[O-])c1cc2c(ccc3ccccc32)oc1=O`: -13.1%; `Cc1cc(N2CCN(C)CC2)nc2ccc(NC(=O)c3ccccc3F)cc12`: -58.4%. Next, `O=C(Cc1ccccc1F)Nc1cc(S(=O)(=O)N2CCOCC2)ccc1N1CCOCC1`: -11.9%; `COc1ccc(CC2SC(N)=NC2=O)cc1` (stereo not shown): 24%; `CCN(CC)S(=O)(=O)c1cccc(C(=O)N2CCCCC2)c1`: -2.8%. Take `CCCSc1nc2c(cnn2-c2ccccc2)c(=O)n1N`: the “hERG current change (%, negative = inhibition) at 10uM” value is reported as -33.8%. Next, `COc1ccc(OC)c(Nc2nc(-c3sc(C)nc3C)cs2)c1`: 7.36%.

With `COc1ccc(C)cc1NC(=O)CNCc1cccs1.Cl`, the “hERG current change (%, negative = inhibition) at 10uM” value was -5.66%.

Turning to `O=C1Nc2ccccc2SC1c1ccccc1` (stereo not shown), the “hERG current change (%, negative = inhibition) at 10uM” value was found to be 7.15%. As for `COc1ccc(/C=C2\CCCC3C2=NN(C(=O)COC(=O)CNC(=O)c2ccccc2)C3c2ccc(OC)cc2)cc1` (stereo not shown), the “hERG current change (%, negative = inhibition) at 10uM” value is on record as 21.3%. To `O=C(N/N=C1\CCCCc2ccccc21)c1ccccn1` belongs -2.26%; to `CCN(CC)CC.COc1cc2c(cc1OC)[C@H](C)N(C(=S)Nc1ccc(F)cc1)CC2`, -1.73%; to `CCCCC1=CC2=C(c3ccco3)C(=O)C(C)(OC(=O)c3ccc(OC)cc3)C(=O)C2=CN1C1CC1` (stereo not shown), -11.2%.

Regarding `COC(=O)Cc1ccc(NC(=S)N2CCN(c3ccc(F)cc3)CC2)cc1`, the “hERG current change (%, negative = inhibition) at 10uM” value is reported as -5.8%.

As to `COC(=O)C1SCC2C(=O)N(Cc3ccc(Cl)cc3)CC(=O)N21` (stereo not shown), the “hERG current change (%, negative = inhibition) at 10uM” value amounted to 22.1%. Next, `CCCCCc1c(C)nc(Nc2ccc(F)cc2)[nH]c1=O`: 5.55%; `COc1ccc2cc(C(=O)N3CCOCC3)sc(=O)c2c1OC`: 7.91%; `Nc1nonc1C(=O)NCCc1ccccc1`: 11.8%. Next, `COC(=O)c1c(C(=O)OC)c(-c2cccc(Cl)c2)n2c1CS(=O)C2` (stereo not shown): 17.6%; `Cc1ccc(CCNC(=O)c2cccc(NC3=NC4CS(=O)(=O)CC4S3)c2)cc1` (stereo not shown): 8.83%; `CCCCC(=O)Nc1c(-c2cccc(OC)c2)c(=O)c2ccccc2n1C`: 7.06%.

On to `CCN(CC)CCCNC(=O)C1c2cc(OC)c(OC)cc2C(=O)N(C)C1c1cccs1` (stereo not shown), for which the “hERG current change (%, negative = inhibition) at 10uM” value is -0.747%.

Turning to `Cc1nc2nc(Cc3ccccc3)[nH]n2c(=O)c1Cc1ccccc1`, the “hERG current change (%, negative = inhibition) at 10uM” value was found to be 13.6%. On to `CCC(C(=O)OC)n1c(-c2ccccc2)nc2ccccc2c1=O` (stereo not shown), for which the “hERG current change (%, negative = inhibition) at 10uM” value came to 18.1%.

Consider `Cc1cc(OCCn2ccnc2)cc(C(C)C)c1.O=C(O)C(=O)O`, for which the “hERG current change (%, negative = inhibition) at 10uM” value is listed as -10.7%. Next, `Cc1cc(C)nc(NC2=NCCN2C(=O)NC2CCCCC2)n1`: -17.7%.

For `Cc1ccc(C(=O)NC23CC4CC(CC(C4)C2)C3)c(Cl)c1`, the “hERG current change (%, negative = inhibition) at 10uM” value stood at 8.25%. To `COc1ccc(C(=O)N(C)CC(=O)Nc2cccc(F)c2)cc1S(=O)(=O)NC1CCCC1` belongs -7.96%; to `O=C(CC(=O)N/N=C/c1ccccc1)NCc1ccccc1`, -7.64%.

Take `Cc1cccc(N=Nc2c(N)n[nH]c2N)c1`: the “hERG current change (%, negative = inhibition) at 10uM” value is 5.91%. Turning to `CN(Cc1cccc(Cl)c1Cl)C(=O)c1ccc(NC(=O)CC#N)cc1`, the “hERG current change (%, negative = inhibition) at 10uM” value is reported as -9.28%.
